Target: the molecule itself
Test: cryo-EM structure

B1: Human mitochondrial RNA polymerase (POLRMT) Δ42 (enzyme, UniProt O00411 43-1230, looked up)
chain: SASPQEQDQDRRKDWGHVELLEVLQARVRQLQAESVSEVVVNRVDVARLPECGSGDGSLQPPRKVQMGAKDATPVPCGRWAKILEKDKRTQQMRMQRLKAKLQMPFQSGEFKALTRRLQVEPRLLSKQMAGCLEDCTRQAPESPWEEQLARLLQEAPGKLSLDVEQAPSGQHSQAQLSGQQQRLLAFFKCCLLTDQLPLAHHLLVVHHGQRQKRKLLTLDMYNAVMLGWARQGAFKELVYVLFMVKDAGLTPDLLSYAAALQCMGRQDQDAGTIERCLEQMSQEGLKLQALFTAVLLSEEDRATVLKAVHKVKPTFSLPPQLPPPVNTSKLLRDVYAKDGRVSYPKLHLPLKTLQCLFEKQLHMELASRVCVVSVEKPTLPSKEVKHARKTLKTLRDQWEKALCRALRETKNRLEREVYEGRFSLYPFLCLLDEREVVRMLLQVLQALPAQGESFTTLARELSARTFSRHVVQRQRVSGQVQALQNHYRKYLCLLASDAEVPEPCLPRQYWEELGAPEALREQPWPLPVQMELGKLLAEMLVQATQMPCSLDKPHRSSRLVPVLYHVYSFRNVQQIGILKPHPAYVQLLEKAAEPTLTFEAVDVPMLCPPLPWTSPHSGAFLLSPTKLMRTVEGATQHQELLETCPPTALHGALDALTQLGNCAWRVNGRVLDLVLQLFQAKGCPQLGVPAPPSEAPQPPEAHLPHSAAPARKAELRRELAHCQKVAREMHSLRAEALYRLSLAQHLRDRVFWLPHNMDFRGRTYPCPPHFNHLGSDVARALLEFAQGRPLGPHGLDWLKIHLVNLTGLKKREPLRKRLAFAEEVMDDILDSADQPLTGRKWWMGAEEPWQTLACCMEVANAVRASDPAAYVSHLPVHQDGSCNGLQHYAALGRDSVGAASVNLEPSDVPQDVYSGVAAQVEVFRRQDAQRGMRVAQVLEGFITRKVVKQTVMTVVYGVTRYGGRLQIEKRLRELSDFPQEFVWEASHYLVRQVFKSLQEMFSGTRAIQHWLTESARLISHMGSVVEWVTPLGVPVIQPYRLDSKVKQIGGGIQSITYTHNGDISRKPNTRKQKNGFPPNFIHSLDSSHMMLTALHCYRKGLTFVSVHDCYWTHAADVSVMNQVCREQFVRLHSEPILQDLSRFLVKRFCSEPQKILEASQLKETLQAVPKPGAFDLEQVKRSTYFFS
  stoichiometry N: 2

Reference: PMC11642874 (bioRxiv, 2024)
